From ChEMBL document CHEMBL5308541, “MAIP: An Open-Source Tool to Enrich High-Throughput Screening Output and Identify Novel, Druglike Molecules with Antimalarial Activity” (ACS Med Chem Lett, 2023)
The campaign covered roughly 150,000 compounds. About 540 (0.36%) showed an effect of 50% or more. This is one part of the list.

What follows are compounds tested on Plasmodium falciparum (assay: Primary screen in NF54 nanoGlo assay, in single point, at 2uM, 72h; a lower Z score goes with more inhibition). Conditions: timepoint 72 hour.
Format: functional, Erythrocyte
Cc1ccn(-c2ccccc2NC(=O)N2CCC[C@H](S(N)(=O)=O)C2)n1 was tested, and the “% Inhibition” value was 1% and the Z score was -0.1. O=C(NC1CCCC1)c1ccc(N2CCC(N[C@@H](CCn3ccnc3)c3ccccc3)CC2)cc1 was tested, and the “% Inhibition” value was -2% and the Z score was 0.31. CCS(=O)(=O)NCCCNc1ncc(F)c(NCC(F)F)n1 was tested, and the “% Inhibition” value was -6% and the Z score was 0.88. For c1cnc(O[C@H]2CC[C@H](Nc3ccc4nccnc4n3)CC2)cn1, the “% Inhibition” value was -7% and the Z score was 1.3. For CNC1CCN(Cc2cccc(-c3nc(-c4cc(C)oc4C)cc(=O)[nH]3)c2)CC1, the “% Inhibition” value was -6% and the Z score was 1.16. For Nc1nc2c(c(N3CCC(Oc4ccccc4F)CC3)n1)CCNCC2, the “% Inhibition” value was 7% and the Z score was -1.24. c1cc2c(N3CCC(COc4cc(C5CCC5)ncn4)CC3)ncnc2cn1 was tested, and the “% Inhibition” value was -18% and the Z score was 2.76. CCNC(=O)N1CCC(NC(=O)c2cccc(-c3ccnc(N)n3)c2)CC1 was tested, and the “% Inhibition” value was -9% and the Z score was 1.87. In the case of Cn1cc(CC(NC(=O)OC(C)(C)C)C(=O)N2CCC3(O)CCCCC3C2)c2ccccc21 (stereo unspecified), the “% Inhibition” value is reported as -13% and the Z score is reported as 2.27. CCN1CCC[C@H](CN2CCCN(c3ncccn3)CC2)C1 was tested, and the “% Inhibition” value was -3% and the Z score was 0.59. For CCN1CCC[C@@H]1CNc1c(S(=O)(=O)c2cccc(F)c2)cnc2cc(F)ccc12, the “% Inhibition” value was -8% and the Z score was 1.38. O=C(NCC1CCNCC1)c1cccc(-c2cc(C(=O)NC3CC3)ccn2)c1 was tested, and the “% Inhibition” value was -10% and the Z score was 1.74. With O=S(=O)(Nc1nccs1)c1ccc(Nc2ccnc3ccc(C(F)(F)F)cc23)cc1 the “% Inhibition” value was 5% and the Z score was -0.78. Nc1nc(NC2CC2)cc(N2CCC(c3cc[nH]c(=O)c3)CC2)n1 was tested, and the “% Inhibition” value was -7% and the Z score was 1.02. Cc1ocnc1CNc1ccc(C(F)(F)F)c(C#N)c1 was tested, and the “% Inhibition” value was -8% and the Z score was 1.62. Cc1ccncc1CCCNC[C@H]1CCCN(Cc2cccnc2)C1 was tested, and the “% Inhibition” value was 11% and the Z score was -1.69. CC(C)N1CCN(c2cc(N3CCN(C(C)C)CC3)ncn2)CC1 was tested, and the “% Inhibition” value was -4% and the Z score was 0.62. In the case of O=C(NCCCN1CCC(O)CC1)N1CCN(Cc2cccc(O)c2)CC1, the “% Inhibition” value is reported as 2% and the Z score is reported as -0.35. With CC(C)n1ncc2cc(CN3CCC(N4CCS(=O)(=O)CC4)CC3)cnc21 the “% Inhibition” value was -5% and the Z score was 0.91. Fc1ccc(CNC2CC2Nc2nc(C(F)(F)F)nc3ccccc23)cc1 (stereo unspecified) was tested, and the “% Inhibition” value was 3% and the Z score was -0.52. In the case of COc1ccc2nc(C(=O)Nc3cc(C)nc(C(C)C)n3)ccc2c1, the “% Inhibition” value is reported as -9% and the Z score is reported as 1.62. In the case of COc1ccc(-c2ccncc2)cc1CN1CCN(c2ccnc(C)n2)CC1, the “% Inhibition” value is reported as 4% and the Z score is reported as -0.84. With O=S(=O)(NCCNc1cc(Nc2ccccn2)ncn1)c1ccccc1C(F)(F)F the “% Inhibition” value was -10% and the Z score was 1.74.
